Experimental data taken from paper PMC4538844.
Positions count from the first letter of the chain named. Results are given in words; binding and its absence hold for the method and conditions named. Binding seen in cells or lysates may run through a third protein. Some results given as binding are weak or reduced against the parent protein; the word gives no strength. Sequences can lack the tags named with a protein.

Sequences of proteins named here, by UniProt entry; tags and fusion partners are left off.
UniProt Q99755: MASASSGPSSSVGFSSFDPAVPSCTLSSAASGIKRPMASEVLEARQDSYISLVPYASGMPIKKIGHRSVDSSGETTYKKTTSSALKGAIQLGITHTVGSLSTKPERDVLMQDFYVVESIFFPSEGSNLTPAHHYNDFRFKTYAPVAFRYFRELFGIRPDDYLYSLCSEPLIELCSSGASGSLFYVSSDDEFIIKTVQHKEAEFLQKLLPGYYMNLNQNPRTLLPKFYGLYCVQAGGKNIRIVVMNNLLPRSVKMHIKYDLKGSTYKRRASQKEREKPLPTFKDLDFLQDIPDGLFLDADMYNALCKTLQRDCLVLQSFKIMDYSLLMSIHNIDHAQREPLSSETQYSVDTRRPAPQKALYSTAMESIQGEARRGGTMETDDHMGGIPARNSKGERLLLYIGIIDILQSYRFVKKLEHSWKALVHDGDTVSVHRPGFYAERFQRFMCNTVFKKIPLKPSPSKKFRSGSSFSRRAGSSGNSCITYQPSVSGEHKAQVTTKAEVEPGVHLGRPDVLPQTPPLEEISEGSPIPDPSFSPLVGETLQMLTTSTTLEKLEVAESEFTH

T1: GST-Star-PAP (FL) (human) (UniProt Q9H6E5)
T1 sequence: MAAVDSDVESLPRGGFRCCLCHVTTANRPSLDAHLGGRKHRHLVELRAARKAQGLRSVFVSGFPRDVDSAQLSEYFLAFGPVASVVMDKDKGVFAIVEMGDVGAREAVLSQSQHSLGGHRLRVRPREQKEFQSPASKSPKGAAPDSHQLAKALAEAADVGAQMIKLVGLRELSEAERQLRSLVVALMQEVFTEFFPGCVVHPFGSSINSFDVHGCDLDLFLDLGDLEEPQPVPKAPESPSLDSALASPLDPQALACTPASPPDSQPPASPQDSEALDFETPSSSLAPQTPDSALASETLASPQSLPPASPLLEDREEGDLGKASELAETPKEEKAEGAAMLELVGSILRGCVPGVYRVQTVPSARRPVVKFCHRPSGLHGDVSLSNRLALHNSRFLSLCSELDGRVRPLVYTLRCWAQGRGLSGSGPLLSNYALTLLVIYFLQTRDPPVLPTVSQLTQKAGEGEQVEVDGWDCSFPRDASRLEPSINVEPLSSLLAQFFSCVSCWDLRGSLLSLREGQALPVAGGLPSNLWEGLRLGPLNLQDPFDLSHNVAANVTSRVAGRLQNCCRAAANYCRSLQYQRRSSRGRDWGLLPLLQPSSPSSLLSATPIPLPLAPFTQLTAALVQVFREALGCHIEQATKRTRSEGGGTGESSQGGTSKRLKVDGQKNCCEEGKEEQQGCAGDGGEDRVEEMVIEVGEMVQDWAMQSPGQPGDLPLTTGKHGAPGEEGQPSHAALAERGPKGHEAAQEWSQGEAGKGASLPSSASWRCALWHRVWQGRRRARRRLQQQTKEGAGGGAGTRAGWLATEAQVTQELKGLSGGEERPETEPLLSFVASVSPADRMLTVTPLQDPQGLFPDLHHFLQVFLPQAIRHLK

T2: GST-RRM domain of Star-PAP (human) (UniProt Q9H6E5)
T2 sequence: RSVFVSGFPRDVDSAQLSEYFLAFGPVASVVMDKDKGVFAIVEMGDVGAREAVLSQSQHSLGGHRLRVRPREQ

T3: FLAG-Star-PAP^WT (human) (UniProt Q9H6E5)
T3 sequence: T1 sequence

T4: FLAG-Star-PAP^S6A (human) (UniProt Q9H6E5)
T4 sequence: T1 sequence with S6A

T5: FLAG-Star-PAP^ΔZF (human) (UniProt Q9H6E5)
T5 sequence: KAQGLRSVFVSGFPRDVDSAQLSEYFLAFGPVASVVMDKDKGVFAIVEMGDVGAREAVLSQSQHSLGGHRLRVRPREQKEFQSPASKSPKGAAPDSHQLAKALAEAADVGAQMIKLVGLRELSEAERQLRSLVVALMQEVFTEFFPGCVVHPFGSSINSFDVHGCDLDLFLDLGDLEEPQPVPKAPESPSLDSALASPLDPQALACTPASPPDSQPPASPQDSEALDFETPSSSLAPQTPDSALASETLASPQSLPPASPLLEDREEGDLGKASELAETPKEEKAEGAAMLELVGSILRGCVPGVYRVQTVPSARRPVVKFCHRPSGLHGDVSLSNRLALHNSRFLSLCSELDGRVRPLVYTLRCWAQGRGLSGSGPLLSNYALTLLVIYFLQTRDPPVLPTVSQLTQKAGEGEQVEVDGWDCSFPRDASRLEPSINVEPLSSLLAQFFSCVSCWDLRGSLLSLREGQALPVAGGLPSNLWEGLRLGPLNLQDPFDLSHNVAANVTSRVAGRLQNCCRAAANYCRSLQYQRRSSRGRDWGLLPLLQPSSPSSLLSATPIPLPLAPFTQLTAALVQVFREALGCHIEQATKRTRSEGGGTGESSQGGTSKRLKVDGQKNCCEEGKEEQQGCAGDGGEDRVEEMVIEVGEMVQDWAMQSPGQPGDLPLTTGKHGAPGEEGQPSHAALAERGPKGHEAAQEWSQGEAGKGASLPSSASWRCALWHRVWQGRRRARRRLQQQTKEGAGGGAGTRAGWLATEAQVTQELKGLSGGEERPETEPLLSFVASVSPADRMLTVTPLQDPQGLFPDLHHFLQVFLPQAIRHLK

T6: FLAG-Star-PAP^S6E (human) (UniProt Q9H6E5)
T6 sequence: T1 sequence with S6E

B1: CPSF 160 (protein, UniProt Q10570 1-1443)
chain: MYAVYKQAHPPTGLEFSMYCNFFNNSERNLVVAGTSQLYVYRLNRDAEALTKNDRSTEGKAHREKLELAASFSFFGNVMSMASVQLAGAKRDALLLSFKDAKLSVVEYDPGTHDLKTLSLHYFEEPELRDGFVQNVHTPRVRVDPDGRCAAMLVYGTRLVVLPFRRESLAEEHEGLVGEGQRSSFLPSYIIDVRALDEKLLNIIDLQFLHGYYEPTLLILFEPNQTWPGRVAVRQDTCSIVAISLNITQKVHPVIWSLTSLPFDCTQALAVPKPIGGVVVFAVNSLLYLNQSVPPYGVALNSLTTGTTAFPLRTQEGVRITLDCAQATFISYDKMVISLKGGEIYVLTLITDGMRSVRAFHFDKAAASVLTTSMVTMEPGYLFLGSRLGNSLLLKYTEKLQEPPASAVREAADKEEPPSKKKRVDATAGWSAAGKSVPQDEVDEIEVYGSEAQSGTQLATYSFEVCDSILNIGPCANAAVGEPAFLSEEFQNSPEPDLEIVVCSGHGKNGALSVLQKSIRPQVVTTFELPGCYDMWTVIAPVRKEEEDNPKGEGTEQEPSTTPEADDDGRRHGFLILSREDSTMILQTGQEIMELDTSGFATQGPTVFAGNIGDNRYIVQVSPLGIRLLEGVNQLHFIPVDLGAPIVQCAVADPYVVIMSAEGHVTMFLLKSDSYGGRHHRLALHKPPLHHQSKVITLCLYRDLSGMFTTESRLGGARDELGGRSGPEAEGLGSETSPTVDDEEEMLYGDSGSLFSPSKEEARRSSQPPADRDPAPFRAEPTHWCLLVRENGTMEIYQLPDWRLVFLVKNFPVGQRVLVDSSFGQPTTQGEARREEATRQGELPLVKEVLLVALGSRQSRPYLLVHVDQELLIYEAFPHDSQLGQGNLKVRFKKVPHNINFREKKPKPSKKKAEGGGAEEGAGARGRVARFRYFEDIYGYSGVFICGPSPHWLLVTGRGALRLHPMAIDGPVDSFAPFHNVNCPRGFLYFNRQGELRISVLPAYLSYDAPWPVRKIPLRCTAHYVAYHVESKVYAVATSTNTPCARIPRMTGEEKEFETIERDERYIHPQQEAFSIQLISPVSWEAIPNARIELQEWEHVTCMKTVSLRSEETVSGLKGYVAAGTCLMQGEEVTCRGRILIMDVIEVVPEPGQPLTKNKFKVLYEKEQKGPVTALCHCNGHLVSAIGQKIFLWSLRASELTGMAFIDTQLYIHQMISVKNFILAADVMKSISLLRYQEESKTLSLVSRDAKPLEVYSVDFMVDNAQLGFLVSDRDRNLMVYMYLPEAKESFGGMRLLRRADFHVGAHVNTFWRTPCRGATEGLSKKSVVWENKHITWFATLDGGIGLLLPMQEKTYRRLLMLQNALTTMLPHHAGLNPRAFRMLHVDRRTLQNAVRNVLDGELLNRYLYLSTMERSELAKKIGTTPDIILDDLLETDRVTAHF

Experiments:
[1] = target: T1, GST-Star-PAP (FL) (human); assay: pull-down; GST-Star-PAP (FL, ZF, RRM, ZF-RRM) immobilised on glutathione-Sepharose beads from E. coli lysates, washed, incubated with E. coli extract with overexpressed His-PIPKIα; TEN 100 buffer (20 mM Tris pH 7.5, 0.1 mM EDTA, 100 mM NaCl), with DNaseI and RNaseA; only the target purified
[2] = target: T2, GST-RRM domain of Star-PAP (human); assay: as above
FLAG-Star-PAP^WT (human) [3] = target: T3, FLAG-Star-PAP^WT (human); assay: condition: only cells treated with the CKI inhibitor CKI7; co-IP; IP as in Figure 2D from HEK 293 cells treated with the CKI inhibitor CKI7 (100 μM, 3 h)
FLAG-Star-PAP^WT (human) [4] = target: T3, FLAG-Star-PAP^WT (human); assay: co-IP; IP as in Figure 2D from HEK 293 cells after knockdown of CKIα
[5] = target: T4, FLAG-Star-PAP^S6A (human); assay: co-IP; anti-FLAG IP from lysates of HEK 293 cells with transiently expressed FLAG-Star-PAP forms, blots for associated endogenous proteins; buffer A (100 mM KCl, 5 mM EDTA, 5% NP-40, RNase A); also after tBHQ or DMSO treatment, control siRNA
[6] = target: T5, FLAG-Star-PAP^ΔZF (human); assay: as above
[7] = target: T6, FLAG-Star-PAP^S6E (human); assay: as above
FLAG-Star-PAP^WT (human) [8] = target: T3, FLAG-Star-PAP^WT (human); assay: as above
[9] = target: T4, FLAG-Star-PAP^S6A (human); assay: co-IP; IP from HEK 293 cells with stable transfection of FLAG-Star-PAP^S6A (Supplementary Figure S4E and F)

Row | Molecule | binding [1] | binding [2] | binding (FLAG-Star-PAP^WT (human) [3]) | binding (FLAG-Star-PAP^WT (human) [4]) | binding [5] | binding [6] | binding [7] | binding (FLAG-Star-PAP^WT (human) [8]) | binding [9]
1 | His-PIPKIα (from UniProt Q99755 1-562) (enzyme) | binds | no binding | – | – | – | – | – | – | –
2 | PIPKIα (endogenous) (from UniProt Q99755 1-562) (enzyme) | – | – | no binding | no binding (condition: after knockdown of CKIα) | no binding | no binding | binds | binds | no binding
3 | B1 | – | – | – | – | binds | – | binds | binds | –
